Among all 310,000 compounds or so, about 2,200 (0.71%) showed an effect of 50% or more. The effect is printed as a negative number. This is one part of the list.
Each molecule was assayed against human ether-à-go-go-related gene (hERG) potassium channel (human, UniProt Q12809) (assay: primary screen, population patch clamp on CHO cells stably expressing hERG).
human ether-à-go-go-related gene (hERG) potassium channel, sequence (Q12809 whole entry, looked up): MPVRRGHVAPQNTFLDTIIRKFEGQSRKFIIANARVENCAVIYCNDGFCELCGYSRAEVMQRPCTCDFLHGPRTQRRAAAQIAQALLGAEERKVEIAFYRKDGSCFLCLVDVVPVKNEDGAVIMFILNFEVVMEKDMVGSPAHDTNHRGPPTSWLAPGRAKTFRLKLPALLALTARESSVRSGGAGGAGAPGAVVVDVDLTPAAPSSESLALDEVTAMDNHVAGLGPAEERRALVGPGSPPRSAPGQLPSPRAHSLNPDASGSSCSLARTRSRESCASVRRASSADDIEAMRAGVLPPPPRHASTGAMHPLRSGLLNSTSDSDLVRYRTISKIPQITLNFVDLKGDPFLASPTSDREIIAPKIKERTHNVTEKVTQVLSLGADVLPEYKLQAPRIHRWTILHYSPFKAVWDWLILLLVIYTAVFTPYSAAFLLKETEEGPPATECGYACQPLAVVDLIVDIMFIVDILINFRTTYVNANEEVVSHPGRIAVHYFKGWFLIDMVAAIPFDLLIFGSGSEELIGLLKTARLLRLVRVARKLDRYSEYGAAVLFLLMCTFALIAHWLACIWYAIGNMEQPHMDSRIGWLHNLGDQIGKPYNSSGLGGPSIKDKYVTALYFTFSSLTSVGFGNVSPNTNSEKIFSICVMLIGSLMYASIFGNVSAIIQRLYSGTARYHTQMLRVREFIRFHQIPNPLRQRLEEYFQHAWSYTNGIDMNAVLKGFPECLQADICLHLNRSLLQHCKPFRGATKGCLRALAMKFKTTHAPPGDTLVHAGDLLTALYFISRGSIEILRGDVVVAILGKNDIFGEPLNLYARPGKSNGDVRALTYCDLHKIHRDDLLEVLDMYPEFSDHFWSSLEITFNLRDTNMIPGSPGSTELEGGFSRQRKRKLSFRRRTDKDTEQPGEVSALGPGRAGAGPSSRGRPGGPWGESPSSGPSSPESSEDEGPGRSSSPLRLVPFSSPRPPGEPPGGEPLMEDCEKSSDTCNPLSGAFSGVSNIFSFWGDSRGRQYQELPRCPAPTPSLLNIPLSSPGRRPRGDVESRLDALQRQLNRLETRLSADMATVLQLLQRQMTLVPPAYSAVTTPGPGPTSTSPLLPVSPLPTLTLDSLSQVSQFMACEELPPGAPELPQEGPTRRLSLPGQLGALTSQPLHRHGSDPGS
For `C=CCOc1ccc(/C=C/C(=O)OCC(=O)NCC2CCCO2)cc1` (stereo not shown), the “hERG current change (%, negative = inhibition) at 1uM” value was -3.07%. `CNC(=O)c1cc(Nc2nnc(-c3ccc(O)cc3)c3ccccc23)ccc1OC` was tested, and the “hERG current change (%, negative = inhibition) at 1uM” value was 9.01%. For `O=C1C2CCCN2C(c2ccccc2F)N1c1ccc(F)cc1` (stereo not shown), the “hERG current change (%, negative = inhibition) at 1uM” value was 14.2%. In the case of `Cc1ccc(C(=O)OCC(=O)Nc2ccc3c(c2)OCO3)cc1S(=O)(=O)N1CCOCC1`, the “hERG current change (%, negative = inhibition) at 1uM” value was 4.18%. For `Cc1c(NC(=S)Nc2cccc(Cl)c2)c(=O)n(-c2ccccc2)n1C`, the “hERG current change (%, negative = inhibition) at 1uM” value was 4.39%. `CCOc1cccc(=O)c2c(C)n(CC3CCCO3)c(C)c12` (stereo not shown) was tested, and the “hERG current change (%, negative = inhibition) at 1uM” value was 8.32%. `C/C(N)=C(/C#N)C(=O)COC(=O)c1cc(S(=O)(=O)N2CCCCC2)ccc1C` was tested, and the “hERG current change (%, negative = inhibition) at 1uM” value was 7.07%. In the case of `Cc1ccc(C(F)(F)F)cc1NC(N)=S`, the “hERG current change (%, negative = inhibition) at 1uM” value was 3.94%. `COc1ccc(N(CC(=O)NC2CCCCC2)S(=O)(=O)c2cccnc2)cc1` was tested, and the “hERG current change (%, negative = inhibition) at 1uM” value was 2.7%. With `COc1cc2c(cc1OC)-c1cc(Nc3ccccc3)nc(=O)n1CC2` the “hERG current change (%, negative = inhibition) at 1uM” value was -8.32%. In the case of `Cn1c(SCC(=O)Nc2ccc3c(c2)oc2ccccc23)nnc1-c1ccccc1`, the “hERG current change (%, negative = inhibition) at 1uM” value was 10.9%. For `O=C(c1ccc(Cl)cc1)N1CCc2c([nH]c3ccccc23)C1C(F)(F)F` (stereo not shown), the “hERG current change (%, negative = inhibition) at 1uM” value was 11.8%. In the case of `Cc1ccc(C)c(N2CCN(C(=O)Cn3ncc4c([nH]c5ccc(C)cc54)c3=O)CC2)c1`, the “hERG current change (%, negative = inhibition) at 1uM” value was 15.8%. With `Clc1cccc(Oc2ncccn2)c1` the “hERG current change (%, negative = inhibition) at 1uM” value was 10.3%. `COc1cc(OC)c(NS(=O)(=O)c2ccc(Cl)c(C(=O)OC(C)C(=O)N3CCCC3)c2)cc1Cl` (stereo not shown) was tested, and the “hERG current change (%, negative = inhibition) at 1uM” value was -0.0556%. For `Cc1ccc(NC(=S)/C(=C(\[O-])c2ccc(F)cc2)[n+]2ccccc2)cc1`, the “hERG current change (%, negative = inhibition) at 1uM” value was 12.1%. `O=C1C(=O)N(CCN2CCOCC2)C(c2ccc(F)cc2)/C1=C(/O)c1ccc(S(=O)(=O)N2CCOCC2)cc1` (stereo not shown) was tested, and the “hERG current change (%, negative = inhibition) at 1uM” value was 20.6%. In the case of `O=C(COc1cnc2ccccc2n1)NCCC1=CCCCC1`, the “hERG current change (%, negative = inhibition) at 1uM” value was 15.8%. For `CCN(C(=O)CSc1nc2nc(C)cc(C)n2n1)C1CCS(=O)(=O)C1` (stereo not shown), the “hERG current change (%, negative = inhibition) at 1uM” value was 8.63%. For `Cn1cnnc1SCc1ccccc1[N+](=O)[O-]`, the “hERG current change (%, negative = inhibition) at 1uM” value was 14.8%. `COc1ccc(OC)c(CNC(=O)C2CCN(C(=O)N(C)C)CC2)c1` was tested, and the “hERG current change (%, negative = inhibition) at 1uM” value was 12.7%. `CC(C)(C)c1nnc(NC(=O)CN2C(=O)C3C4C=CC(C4)C3C2=O)s1` (stereo not shown) was tested, and the “hERG current change (%, negative = inhibition) at 1uM” value was 11.7%. With `CCN1CCN(CC(=O)NC2CCCCC2)C(=O)C1=O` the “hERG current change (%, negative = inhibition) at 1uM” value was 15.8%. For `CCc1noc(C)c1C(=O)OCC(=O)Nc1nc(-c2ccc(F)c(F)c2)cs1`, the “hERG current change (%, negative = inhibition) at 1uM” value was -2.7%. With `CCCCSc1nnc(-c2ccc(OC)cc2)n1C` the “hERG current change (%, negative = inhibition) at 1uM” value was 0.236%. `CCOc1cc(CNCc2ccc(C(=O)O)cc2)ccc1OC.Cl` was tested, and the “hERG current change (%, negative = inhibition) at 1uM” value was 11.8%. For `O=C(Cc1cccc2ccccc12)N/N=C/c1ccc(Sc2nc3ccccc3s2)o1`, the “hERG current change (%, negative = inhibition) at 1uM” value was 19%. With `CC(C)(C)OC(=O)N1CCC[C@H]1C(=O)OCC(=O)Nc1cc(S(C)(=O)=O)ccc1Cl` the “hERG current change (%, negative = inhibition) at 1uM” value was 5.59%. For `Cl.FC(F)(F)c1cc(CO[C@@H]2CCCN[C@@H]2c2ccccc2)cc(C(F)(F)F)c1`, the “hERG current change (%, negative = inhibition) at 1uM” value was 14.6%. In the case of `COc1ccc(C(O)Cc2nc3ccccc3n2C)cc1OC` (stereo not shown), the “hERG current change (%, negative = inhibition) at 1uM” value was 16.3%. `CN(C)S(=O)(=O)c1ccc(Cl)c(NC(=O)CN2C(=O)NC(C)(C3CC3)C2=O)c1` (stereo not shown) was tested, and the “hERG current change (%, negative = inhibition) at 1uM” value was 4.05%. For `O=C(CSc1nncc2ccccc12)Nc1ccc(C(=O)O)cc1`, the “hERG current change (%, negative = inhibition) at 1uM” value was 7.16%. In the case of `Cc1ccc(-c2csc3ncnc(N4CCN(S(=O)(=O)c5cccs5)CC4)c23)cc1`, the “hERG current change (%, negative = inhibition) at 1uM” value was 10.7%. `O=C(Nc1cc(Cl)ccc1N1CCCCC1)c1cccs1` was tested, and the “hERG current change (%, negative = inhibition) at 1uM” value was 2.38%. For `COC(=O)c1nn(-c2ccccc2)c(Cl)c1/C=N/OC(=O)c1ccc(Cl)c(Cl)c1`, the “hERG current change (%, negative = inhibition) at 1uM” value was 13.6%. For `O=C(CCCCCCN1C(=O)c2ccccc2C1=O)Nc1nccs1`, the “hERG current change (%, negative = inhibition) at 1uM” value was 16.2%. `Cc1ccc(Cl)c(OCC(=O)Nc2ccc(S(=O)(=O)NC3=NCCCCC3)cc2)c1` was tested, and the “hERG current change (%, negative = inhibition) at 1uM” value was 33.7%. With `CCCN(CC1CC1)C(=S)NC(=O)c1ccccc1Br` the “hERG current change (%, negative = inhibition) at 1uM” value was 1.43%. `Cc1ccc(NC(=O)NC2CCN(CC(=O)Nc3nccs3)CC2)cc1` was tested, and the “hERG current change (%, negative = inhibition) at 1uM” value was 2.68%. In the case of `CCOC(=O)C1=C(C)N(CCCC(=O)O)C(=O)NC1c1ccccc1OS(=O)(=O)c1ccc([N+](=O)[O-])cc1` (stereo not shown), the “hERG current change (%, negative = inhibition) at 1uM” value was 17.8%. `CS(=O)(=O)NN1C(=O)c2ccccc2NC1c1cccs1` (stereo not shown) was tested, and the “hERG current change (%, negative = inhibition) at 1uM” value was 9.6%. `Cc1nc2ccc(-c3nc4ccc(N)cc4[nH]3)cc2[nH]1` was tested, and the “hERG current change (%, negative = inhibition) at 1uM” value was 6.93%. `COCCn1nnnc1C(c1cc2cc(C)ccc2[nH]c1=O)N1CCCCCC1` (stereo not shown) was tested, and the “hERG current change (%, negative = inhibition) at 1uM” value was 7.19%.

Source: PMC4336329 (PLoS ONE, 2015)
